From PubChem BioAssay AID686978 (National Center for Advancing Translational Sciences (NCATS), 2013)
In all, about 420,000 compounds went through this assay and about 64,000 (15%) were called active. The shares of active, inactive and inconclusive entries below differ from those in the screen. Calls follow the shape of the dose curve; as a rule, active = well fitted inhibition curve with a large enough effect; inconclusive = small, poorly fitted or top-dose-only effect; inactive = flat fitted curve, though single readings scatter. Potencies of inconclusive entries are left out as doubtful fits.

Experiment: qHTS for Inhibitors of human tyrosyl-DNA phosphodiesterase 1 (TDP1): qHTS in cells in absence of CPT; also: nearly all actives have a fitted effect of over 55% in size
Details: DT40 Tdp1-/- hTDP1 cells, no CPT, ATP luminescence, 48 h; activity change, negative = growth inhibition: at 46.2 µM (top of the series)
Summary of the method: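 Luminescent ATP content (CellTiter-Glo) served as the growth readout. Knockout chicken DT40 cells expressing human TDP1 were exposed to compounds without camptothecin for a minimum 48 hr at 37 °C.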
% is scaled to controls: 0 for no effect and ±100 for the full control effect; potency is read from the fitted curve at half-maximal effect; tags tell the direction and shape of the fitted curve.

SMILES | Potency | activity change, negative = growth inhibition
Cc1ccc(CCNC(=O)C2CCN(S(=O)(=O)c3ccc4c(ccn4C)c3)CC2)cc1 | inconclusive [inhibitor, single point] | 
COc1ccc(CNC(=O)[C@@H]2CC=C[C@@H]3CCN(C4CCCCC4)C(=O)[C@@H]32)cc1 | inconclusive [inhibitor, single point] | 
CC1Oc2ccc(C#N)cc2N(Cc2ccc(F)cc2)C1=O (configuration not stated) | inactive | 
Cc1cc(NC(=O)c2ccc([N+](=O)[O-])cc2)no1 | inactive | 
Cc1cccc(C)c1NC(=O)CN(C)C(=O)c1ccc2c(=O)n3c(nc2c1)CCC3 | inactive | 
CC1CN(C(=O)c2cc3cc(F)ccc3[nH]2)CC(C)O1 (configuration not stated) | inactive | 
COc1ccccc1CN1CC(C(=O)NCCSc2nnnn2C)CCC1=O (configuration not stated) | inactive | 
CCOC(=O)c1cc(-c2ccc(C)cc2)n(CCC(=O)NC(C)CC)c1C (configuration not stated) | inconclusive [inhibitor, partial curve, poor fit] | 
Cc1cccc(-c2nc3c(cnn3-c3ccccc3)c(=O)n2-c2ccc(Cl)cc2)c1 | active: 14.6 µM | 
Cc1ccccc1C(=O)N(C)[C@H]1C[C@H]2c3[nH]c4ccccc4c3CCN2C(=O)[C@H]1[C@H](C)O | active: 20.6 µM | 
COCCCn1nnnc1SCC(=O)N1c2ccccc2CC1C (configuration not stated) | inconclusive [inhibitor, partial curve, poor fit] | 
Cc1ccc(-n2c(SCC(=O)N3CCOCC3)nc(O)c(Cc3ccccc3)c2=O)cc1 | inactive | 
Cc1c(C(=O)c2ccc(Cl)c(Cl)c2)cnc2cc3c(cc12)OCO3 | inconclusive [inhibitor, single point] | 
CCOC(=O)C(C)Sc1nc(-c2ccccc2)nc2ccccc12 (configuration not stated) | inconclusive [inhibitor, single point] | 
CCCCc1ccc(NS(=O)(=O)c2c(C)n(C)c(=O)n(C)c2=O)cc1 | inconclusive [inhibitor, single point] | 
COc1ccc(-c2nn3c(-c4ccccc4)nnc3s2)cc1OC | inconclusive [inhibitor, single point] | 
Cc1ccc(CN2CCN(CC3CC4C=CC3C4)CC2)cc1 (configuration not stated) | inconclusive [inhibitor, single point] | 
COc1ccc(S(=O)(=O)NCC(c2ccco2)S(=O)(=O)c2cccs2)cc1F (configuration not stated) | inconclusive [inhibitor, single point] | 
Cc1ccc(NC(=O)CSc2nnc3n2CCCCC3)cc1 | inactive | 
COc1ccc(NC(=O)CSc2nc(C)cc(C)c2C(=O)Nc2ccccc2OC)cc1 | inconclusive [inhibitor, single point] | 
O=C(NCc1ccncc1)Nc1ccccc1Cl | inactive | 
COc1cc(C2C(C#N)=C(N)N(c3ccc(F)cc3)C3=C2S(=O)(=O)CC3)ccc1O (configuration not stated) | inconclusive [inhibitor, single point] | 
CCn1c(=O)cc(SCC(=O)N2CCN(C(=O)c3ccco3)CC2)c2ccccc21 | inconclusive [inhibitor, single point] | 
CCOc1cc(-c2cc(-c3ccc(C)cc3)nc(N)c2C#N)ccc1O | active: 20.6 µM | 

SMILES | Potency | activity change, negative = growth inhibition
Cc1ccc(-n2ncc3c2CC(C)(C)CC3NC(=O)c2ccncc2)cc1 (configuration not stated) | inconclusive [inhibitor, single point] | 
COc1ccc(CCn2c(-c3ccco3)nc3nc4ccccc4nc32)cc1 | active: 10.3 µM | 
Cc1cc(C)n2c(SCc3cccs3)nnc2n1 | inactive | 
O=C(CN1CCN(S(=O)(=O)c2ccc(Br)cc2)CC1)Nc1ccc2c(c1)OCO2 |  | inconclusive: -35.3% [inhibitor]
Cc1cc2cc(C(c3nnnn3Cc3ccco3)N3CCc4ccccc4C3)c(=O)[nH]c2cc1C (configuration not stated) | active: 23.1 µM | 
Cc1csc(NC(=O)c2cc3c(s2)-c2ccccc2OC3)n1 | inactive | 
COc1cc(CNCCc2c[nH]c3ccccc23)ccc1OCc1ccccc1F | inconclusive [inhibitor, single point] | 
COc1ccc(-c2nc(N)n(C(=O)c3cccs3)n2)cc1 | inactive | 
Cn1c(=O)c(/C=C/c2ccc(F)cc2)nc2ccccc21 | active: 23.1 µM | 
O=C(Oc1ccccc1)N1CCC2(CC1)CCN(c1ccccn1)CC2 | inconclusive [inhibitor, single point] | 
C/C(=N\NC(=O)c1cccnc1)c1cc2ccccc2o1 | inactive | 
CCOC(=O)[C@]12CCC=C1N(Cc1ccc3c(c1)OCO3)C(=O)[C@H](CC(=O)NCCC(C)C)C2 | active: 18.4 µM | 
CCn1c2ccccc2c2cc(NC(=O)COC(=O)c3cccc(S(=O)(=O)NC)c3)ccc21 | inconclusive [inhibitor, single point] | 
COc1ccc(S(=O)(=O)N2CCCCCC2)cc1NC(=O)CCc1cc(OC)c(OC)c(OC)c1 | inconclusive [inhibitor, single point] | 
Cc1cc(Cl)c2oc(C(=O)N(C)C3CCOC3)c(C)c2c1 (configuration not stated) | inconclusive [inhibitor, single point] | 
Cc1ccc(-n2ncc(C(=O)NCc3ccco3)c2C2CCN(C(=O)OC(C)(C)C)CC2)cc1 | active: 18.4 µM | 
O=C(NCc1cccc(C(F)(F)F)c1)c1cc(-c2ccccc2)nn1CC1CC(c2cccnc2)=NO1 (configuration not stated) | inconclusive [inhibitor, single point] | 
CNC(=O)C1CCC(Cn2c(=O)c3sccc3n(CC(=O)N3CCC(C)CC3)c2=O)CC1 (configuration not stated) | inactive | 
Cc1cccc(/C=N/NC(=O)CNc2cccc3ccccc23)n1 | active: 13 µM | 
CN(C)/C=N/c1nc2nccc(-c3ccccn3)n2n1 | inactive | 
Fc1ccc(-c2nnc(SCc3ncc(-c4ccccc4)o3)n2CC2CCCO2)cc1 (configuration not stated) | inconclusive [inhibitor, partial curve] | 
O=C(OC(C(=O)Nc1cccc(C(F)(F)F)c1)c1ccccc1)C1CCCCC1 (configuration not stated) | inconclusive [inhibitor, single point] | 
O=C(NC1CCCCNC1=O)c1ccco1 (configuration not stated) | inactive | 
